Experimental data: PubChem BioAssay AID588591 (National Center for Advancing Translational Sciences (NCATS), 2011)
Hit rate of the full screen: of about 390,000 compounds, about 4,700 (1.2%) were called active. The shares of active, inactive and inconclusive entries below differ from those in the screen. Calls come from the whole dose curve; as a rule, active = well fitted inhibition curve with a large enough effect; inconclusive = small, poorly fitted or top-dose-only effect, or another doubt; inactive = no such curve, though single readings can be large or run the other way. A potency beside an inconclusive call is a rough fit, not a confirmed value.
Potency is the fitted concentration of half-maximal effect; tags give direction and shape of the fitted curve.

The compounds below were run against DNA polymerase eta (Homo sapiens) (UniProt Q9Y253) (assay: qHTS for Inhibitors of Polymerase Eta). Details: recombinant Pol eta, fluorescent DNA replication assay; series mostly up to 114 µM.
Sequence of UniProt Q9Y253 (Q9Y253 whole entry, looked up): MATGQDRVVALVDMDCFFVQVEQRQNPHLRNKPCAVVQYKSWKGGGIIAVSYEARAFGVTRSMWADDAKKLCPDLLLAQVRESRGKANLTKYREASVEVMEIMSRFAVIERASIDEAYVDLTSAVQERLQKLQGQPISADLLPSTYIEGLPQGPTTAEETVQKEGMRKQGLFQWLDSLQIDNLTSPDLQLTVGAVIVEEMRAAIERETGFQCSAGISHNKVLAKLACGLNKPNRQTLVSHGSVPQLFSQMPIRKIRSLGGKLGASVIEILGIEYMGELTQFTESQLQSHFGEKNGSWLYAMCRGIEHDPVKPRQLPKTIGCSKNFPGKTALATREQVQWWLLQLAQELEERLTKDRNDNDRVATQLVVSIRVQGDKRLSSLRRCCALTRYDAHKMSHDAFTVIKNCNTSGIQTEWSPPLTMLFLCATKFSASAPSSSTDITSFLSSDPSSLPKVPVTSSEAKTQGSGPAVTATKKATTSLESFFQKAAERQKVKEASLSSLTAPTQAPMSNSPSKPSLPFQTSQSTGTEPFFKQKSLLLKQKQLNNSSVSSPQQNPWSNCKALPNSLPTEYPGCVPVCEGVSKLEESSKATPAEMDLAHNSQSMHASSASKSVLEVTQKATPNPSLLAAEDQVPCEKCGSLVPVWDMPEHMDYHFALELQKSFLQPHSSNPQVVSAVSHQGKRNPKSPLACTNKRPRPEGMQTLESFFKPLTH
How it was run: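 Fluorescent replication assay: 50 nM final substrate added after a 15 min room-temperature compound preincubation with 10 nM enzyme. Signal taken at 0 min and again at 10 min.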
In the case of `Cc1ccc(C(C2=C(O)CC(C)(C)CC2=O)C2C(=O)CC(C)(C)CC2=O)s1` (stereo not given), the Potency is reported as “inactive”.
For `COc1cc2ccccc2cc1C(=O)Nc1ccc(O)cc1`, the Potency was “inactive”.
`Nc1cccc2cc(S(=O)(=O)O)ccc12` was tested, and the Potency was active: 3.98 µM.
With `C#CCOCCOCCOCCNc1nc(N2CCN(C(=O)CCCCCCCCCCNC(=O)Cn3cc(CCCCCN)nn3)CC2)nc(N2CCN(C(=O)CCCCCCCCCCNC(=O)[C@H]([C@@H](C)CC)n3cc(CCCCN=C(N)N)nn3)CC2)n1` the Potency was active: 79.4 µM.
With `Cc1ccc(-c2nn(-c3ccccc3)cc2/C=C2\SC(=S)N(CC(=O)O)C2=O)cc1` the Potency was inconclusive: 35.5 µM [inhibitor, partial curve, poor fit].
`Cc1ccc(C)c(S(=O)(=O)NCCCn2ccnc2)c1` was tested, and the Potency was inconclusive: 100 µM [inhibitor, partial curve, poor fit].
`CCOc1ccc(CNC(=O)c2ccc(-c3nc(CSc4ccc(C)cc4)c(C)o3)cc2)cc1` was tested, and the Potency was “inactive”.
In the case of `COc1cc(/C=C2\SC(=S)N(CCCCC(=O)O)C2=O)ccc1OS(=O)(=O)c1ccc(C)cc1`, the Potency is reported as inconclusive: 8.91 µM [inhibitor, partial curve, poor fit].
`CC1=CC(C)(C)N(C(=O)CSc2nnc(-c3ccc(C)cc3)o2)c2ccc(C)cc21` was tested, and the Potency was inconclusive: 79.4 µM [inhibitor, partial curve, poor fit].
With `O=C1c2ccccc2C(=O)c2c([N+](=O)[O-])ccc(O)c21` the Potency was active: 31.6 µM.
`CN(CC(=O)Nc1ccc(Cl)c(C(F)(F)F)c1)C(=O)Cn1cc([N+](=O)[O-])ccc1=O` was tested, and the Potency was active: 79.4 µM.
For `Cc1ccc(-n2c3nc(=O)[nH]c(=O)c-3cc3c(Cl)cccc32)cc1`, the Potency was inconclusive: 89.1 µM [inhibitor, partial curve, poor fit].
`Cc1ccc(/C=C2\SC(=S)N(CCCC(=O)Nc3cccc(C(=O)O)c3)C2=O)cc1` was tested, and the Potency was inconclusive: 89.1 µM [inhibitor, partial curve, poor fit].
For `C/C=C/c1ccc(OCCOc2cc(C=O)ccc2OC)c(OC)c1`, the Potency was inconclusive: 31.6 µM [inhibitor, single point].
`O=C(OCCCCN1C(=O)c2ccccc2C1=O)c1ccc(S(=O)(=O)N2CCCC2)cc1` was tested, and the Potency was inconclusive: 39.8 µM [inhibitor, partial curve, poor fit].
`C/C(=N\NC(=O)c1cccc(N/N=C(\C)c2cc(O)ccc2O)c1)c1cc(O)ccc1O` was tested, and the Potency was inconclusive: 44.7 µM [inhibitor, partial curve].
`O=C(CSc1ncc(S(=O)(=O)c2ccc(Cl)cc2)c(=O)[nH]1)Nc1ccc2c(c1)OCCO2` was tested, and the Potency was “inactive”.
For `O=[N+]([O-])c1ccc(Oc2ccc(S(=O)(=O)Nc3ccccc3)cc2)cc1`, the Potency was “inactive”.
For `Cc1cc(-c2cccnc2)c(C#N)c(SCC#N)n1`, the Potency was “inactive”.
With `O=C(/C=C/c1ccccc1[N+](=O)[O-])N1CCN(C(=O)c2ccco2)CC1` the Potency was “inactive”.
With `CCc1ccc(CNc2ccc(O)cc2)cc1` the Potency was active: 25.1 µM.
In the case of `COCCOC(=O)C1=C(C)NC(=O)NC1c1ccc(OC(=O)c2ccco2)c(OC)c1` (stereo not given), the Potency is reported as “inactive”.
In the case of `COC(=O)/C=C1\S/C(=N\N=C\CC(=O)OC)NC1=O`, the Potency is reported as inconclusive: 25.1 µM [inhibitor, full curve].
For `Cc1cc(S(=O)(=O)N2CCOCC2)ccc1OCC(=O)Nc1ccc(F)cc1F`, the Potency was “inactive”.
For `O=C1c2[nH]nc(-c3ccccc3)c2C(c2ccccc2)N1c1cccc(C(F)(F)F)c1` (stereo not given), the Potency was inconclusive: 50.1 µM [inhibitor, partial curve, poor fit].
`COc1ccccc1CN(C)C(=O)CN1C(=O)c2ccccc2C1=O` was tested, and the Potency was “inactive”.
`Cc1ccc(Cl)c(OC(=O)C2CSC3(C)CCC(=O)N23)c1` (stereo not given) was tested, and the Potency was “inactive”.
For `COc1ccccc1NS(=O)(=O)c1cc(NC(=O)CNC(=O)c2ccc(C)s2)ccc1Cl`, the Potency was inconclusive: 79.4 µM [inhibitor, partial curve].
In the case of `COC(=O)N1CCc2c(sc(NC(=O)C3COc4ccccc4O3)c2C(N)=O)C1` (stereo not given), the Potency is reported as inconclusive: 22.4 µM [inhibitor, single point].
With `O=C(COC(=O)c1ccc(Cl)nc1)Nc1nnc(-c2ccccc2)o1` the Potency was inconclusive: 22.4 µM [inhibitor, single point].
With `Cc1nc(N=Nc2ccc(C(=O)O)cc2)c(COP(=O)(O)O)c(C=O)c1O` the Potency was inconclusive: 25.1 µM [inhibitor, partial curve].
With `O=C1NC(=S)N/C1=C/c1cccc([N+](=O)[O-])c1O` the Potency was inconclusive: 35.5 µM [inhibitor, partial curve, poor fit].
For `CC1(C)Cc2ccccc2-c2nnc(-c3ccc4ccccc4n3)n21`, the Potency was inconclusive: 39.8 µM [inhibitor, single point].
For `CC1=Nc2ccccc2/C1=C\c1sc(Nc2ccc(C)cc2)nc1O`, the Potency was “inactive”.
With `O=C(COc1ccc(Cl)cc1Cl)Nc1ccc2nc3n(c(=O)c2c1)CCCC3` the Potency was inconclusive: 39.8 µM [inhibitor, single point].
In the case of `Cc1cc(CNC(=O)c2cccc3c2C(=O)c2ccc(-c4ccc(F)cc4OCc4ccccc4)cc2S3(=O)=O)c(C(F)(F)F)o1`, the Potency is reported as active: 20 µM.
For `CCOCCCNc1nc2c(C)cccn2c(=O)c1/C=C1\SC(=S)N(C(C)CC)C1=O` (stereo not given), the Potency was active: 79.4 µM.
In the case of `COc1cccc(OCc2nc3ccccc3n2Cc2ccccc2C)c1`, the Potency is reported as inconclusive: 79.4 µM [inhibitor, partial curve, poor fit].
`CCS(=O)(=O)C1=NN2C(=N)/C(=C\c3ccc(OCCOc4cccc(OC)c4)c(OC)c3)C(=O)N=C2S1` was tested, and the Potency was active: 35.5 µM.
In the case of `COc1ccc(C(=O)Nc2ccc(OCC(F)(F)C(F)F)c(C(F)(F)F)c2)cc1OC`, the Potency is reported as inconclusive: 35.5 µM [inhibitor, partial curve, poor fit].
`CCCCOc1ccc(C(C)NC(=O)c2cccc(Nc3nc4ccccc4n4nnnc34)c2)cc1` (stereo not given) was tested, and the Potency was “inactive”.
With `CC1CCC(NC(=O)N(CCCl)N=O)CC1` (stereo not given) the Potency was inconclusive: 100 µM [inhibitor, single point].
In the case of `Cc1ccc(C)c(/C(O)=C2/C(=O)C(=O)N(CCN3CCOCC3)C2c2ccco2)c1` (stereo not given), the Potency is reported as active: 22.4 µM.
With `COc1ccc(C(=O)c2ccc(CC#N)s2)cc1` the Potency was inconclusive: 8.91 µM [inhibitor, partial curve, poor fit].
With `COc1ccc(/C=N/NC(=O)c2cccc(NC(=O)c3ccc(Cl)cc3)c2)c(OC)c1` the Potency was inconclusive: 12.6 µM [inhibitor, partial curve, poor fit].
In the case of `COc1ccc(C(=O)NC(=S)Nc2ccc(S(=O)(=O)Nc3cc(OC)nc(OC)n3)cc2)cc1`, the Potency is reported as “inactive”.
With `CCSc1nnc2c(n1)OC(c1ccc(C)cc1)N(C(C)=O)c1ccccc1-2` (stereo not given) the Potency was “inactive”.
With `Cn1c(O)c(/C=C2\C=Nc3ccccc32)sc1=Nc1ccc(C(=O)O)cc1` the Potency was inconclusive: 56.2 µM [inhibitor, partial curve, poor fit].
For `O=C(O)CC(C(=O)O)c1cn(Cc2ccccc2)c2ccccc12` (stereo not given), the Potency was inconclusive: 22.4 µM [inhibitor, partial curve, poor fit].
For `CC1CCCCN1Cc1c(O)ccc2c(=O)c(-c3nc4ccccc4s3)coc12` (stereo not given), the Potency was inconclusive: 56.2 µM [inhibitor, partial curve, poor fit].
In the case of `COc1ccccc1CNC(=S)NCCc1ccccc1`, the Potency is reported as inconclusive: 89.1 µM [inhibitor, partial curve, poor fit].
In the case of `COc1cc2cc(Oc3ccc4ccc(=O)oc4c3)c(=O)oc2cc1OC1OC(COC(=O)CC(C)(O)CC(=O)O)C(O)C(O)C1O` (stereo not given), the Potency is reported as active: 35.5 µM.
With `Cc1nc2ccccc2n1CC(O)Cn1c(C(F)(F)F)nc2ccccc21` (stereo not given) the Potency was inconclusive: 79.4 µM [inhibitor, partial curve, poor fit].
For `COc1ccc(N2CC(C(=O)NC3CCSC3=O)CC2=O)cc1` (stereo not given), the Potency was “inactive”.
In the case of `COC(=O)c1ccc(CNC(=O)Cn2cnnn2)cc1`, the Potency is reported as inconclusive: 31.6 µM [inhibitor, partial curve, poor fit].
In the case of `CCCn1c2ccccc2c2nnc(SCc3[nH]c(=O)[nH]c3C(=O)CCCCC(=O)OCC)nc21`, the Potency is reported as inconclusive: 28.2 µM [inhibitor, single point].
For `COc1cc(O)c2c(c1)OC(c1ccc(O)cc1)CC2=O` (stereo not given), the Potency was inconclusive: 15.8 µM [inhibitor, full curve, poor fit].
With `COc1ccc(Br)cc1CN1CCN(c2ncccn2)CC1` the Potency was inconclusive: 100 µM [inhibitor, partial curve, poor fit].
In the case of `CCOC(=O)c1sc(NC(=O)c2cc(-c3ccccc3)nc3ccccc23)c(C#N)c1C`, the Potency is reported as inconclusive: 14.1 µM [inhibitor, full curve, poor fit].
With `O=C(c1cccc(-n2cccc2)c1)N1CCN(S(=O)(=O)c2c(F)cccc2F)CC1` the Potency was active: 20 µM.
For `Cc1c(C)c2c(cc(C)c3c(-c4ccccc4)coc32)oc1=O`, the Potency was “inactive”.
`COc1ccc(-c2nc(Cn3c(SCc4ccccc4F)nc4ccncc43)c(C)o2)cc1` was tested, and the Potency was inconclusive: 39.8 µM [inhibitor, partial curve].
With `COc1ccc(/C=C(\NC(=O)/C=C/c2ccco2)C(=O)NCCc2nc3ccccc3[nH]2)cc1` the Potency was inconclusive: 31.6 µM [inhibitor, partial curve, poor fit].
With `COc1cccc(-c2nc(NCC3CCCO3)c3ccccc3n2)c1O` (stereo not given) the Potency was inconclusive: 14.1 µM [inhibitor, full curve, poor fit].
`CCCC1=Nc2cc(C(=O)NC3CCCC3)ccc2Sc2ccc(C)cc21` was tested, and the Potency was inconclusive: 100 µM [inhibitor, partial curve, poor fit].
